Measurements: the supplement of paper PMC11417369
This is one part of the list.

Tested on: PF3D7_0420300 AP2 domain 1 (GST-tagged)
Assay: gcPBM binding intensity (ln(normalized median fluorescence intensity)); higher = stronger DNA binding
Procedure, shortened: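 Each value is the highest Masliner-normalised natural-log median intensity across replicate spots of either orientation of a probe. The probes were primer-extended double-stranded 36-bp intergenic genomic sequences on an Agilent 4 × 180k array, alongside negative controls, exposed for 1 h to GST-tagged P. falciparum DNA-binding domains expressed in E. coli. Bound protein was picked up with Alexa488 anti-GST antibody and scanned at 488 nm.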

| Sequence | gcPBM binding intensity (ln) |
| --- | --- |
| AATTTTATAAAAAGTAGTACATATCAAACACCTTGA [XGTACX_site2297] | 9.16 |
| TGACTTTTTTTTTTTTTTTTTTTTTTTTATCTTTTT [CACACA_negctrl_site481] | 9.16 |
| TTATGATTATAACGTTTTGACATTAGGCATATATAT [CACACA_negctrl_site1396] | 9.01 |
| TATATCATAAAAAATTGTACATATATATATTATATA [XGTACX_site6726] | 9.1 |
| TGATGGGACATAAATATTGAGATGATCATAAGATAA [TGCATGCA_negctrl_site276] | 9.07 |
| AAAGATAATATATGCACACATATAAATATATAAATA [CACACA_site3477] | 9.35 |
| TATTTATTATATAAATGTACATAATATATGTATGTC [XGTACX_site2815] | 9.06 |
| AAAAAAAAAAAAAGTACACACTTTTGCGTACAAGTA [CACACA_site5672] | 9.32 |
| ATTCTGAATGTTATGCGTACATATTAATCCTATTTA [XGTACX_site1216] | 9.22 |
| TAAGGTTCATTAAAGTGTACACATAAATACCGTAAC [XGTACX_site8212] | 9.38 |
| TGTAATAATTATTGCACGCACACAAAAACCTATAGA [CACACA_site2932] | 9.48 |
| AAGTAAATATAATAAGGTACACATAAATAAATAAAT [XGTACX_site1740] | 9.62 |
| GGAAACACGATATATACACACATATTTATATTTATA [CACACA_site6250] | 9.65 |
| TCCAAATAAATATATTGTACAGAATTATTGATACCT [XGTACX_site327] | 9.14 |
| ATGTTGTTATAAAGAGTGCAACGTATATGTATCCTT [GTGCAC_site9935] | 9.32 |
| AGAAAAGGAAAATAAACATGCAAAAATAATATTAAA [TGCATGCA_site337] | 9.55 |
| TATATACCACATTGTTGTACGACACATTTACATTTT [XGTACX_site8370] | 9.59 |
| ATGTCTTTGAAAAAAAGTACTTAAAATTATAAAAAT [XGTACX_site147] | 8.94 |
| ACTGTCGTTTTAAAGAGTACATAAAATATTAAATTA [XGTACX_site3589] | 8.92 |
| TTCTTTTAAAGGTATACATGCGCATGGATTTTTCAT [TGCATGCA_site223] | 9.06 |
| AATTAAAAAATTATCACACATATATATATATATATA [CACACA_site5789] | 9.09 |
| TCAAAGCACAGATACACACACATATATATATATATA [CACACA_site287] | 9.59 |

| Sequence | gcPBM binding intensity (ln) |
| --- | --- |
| AAAACTATTAATGCAAAAAATAAAATATAATAATAA [XGTACX_negctrl_site524] | 9.27 |
| AAGTTAACAATATGAAGTACAAATGAAAAAAAAAAA [XGTACX_site666] | 9.5 |
| TTGTTATAGAAGCATTCACACACACCCATACATACA [CACACA_site8414] | 9.87 |
| ATATATATATATCATAGTACACATATGTGTCTCGTG [XGTACX_site774] | 9.51 |
| ATATATATTTATTTATGTACGAATAAATTTACGAAT [XGTACX_site5190] | 9.06 |
| AATATCATTATATAAGTGCATTTTTTAAAAGATAAA [GTGCAC_site9479] | 9.1 |
| TTAATAGGTCGAAGTAGTACATAAAAATATATATAT [XGTACX_site5960] | 9.33 |
| TAAACATTGTAAAGGAGTACAAAATTTTTTTTATGA [XGTACX_site7757] | 9.04 |
| AATAATAAAAAATACACACACATATATATATATTAC [CACACA_site3464] | 10.2 |
| AACATACAGAAACACACACACACACCCACACCCACA [CACACA_site493] | 10.3 |
| CATACACAAGAAAATTCACACACACCCATATATATA [CACACA_site9288] | 10.1 |
| TCTTACAAAAAACAAACAGAGAAAAATATAAGGAAA [XGTACX_negctrl_site520] | 9.53 |
| TTTTTTTTTTTGTATCGTACATTTATAATGTTTATA [XGTACX_site6804] | 9.28 |
| TTTTTTTCATATAACACACACACAAAAATAATGTGG [CACACA_site3688] | 9.67 |
| TTTTCTAAATATTATAGTACTCTTAATAATATTAAC [XGTACX_site4222] | 9 |
| TAAAAAATTAATAAAGTGCATAAATATTACAATATT | 9.22 |
| TTAACAAAATATAGCACACATAAATATATATTTATG [CACACA_site351] | 9.41 |
| ATTCATATATTTATTGCATGCAAAGTAAAATAAATA [TGCATGCA_site307] | 8.92 |
| AATATTAAAATATAAACACACAAAATTCAATTATAT [CACACA_site5971] | 9.61 |
| GACATATTAGAAGGGTGTACATACTTTTAATCATTT [XGTACX_site1698] | 9.28 |
| TACATATATATATGTATATATATATATATATAAATA [XGTACX_negctrl_site351] | 8.98 |
| ATGAATAAATGAACATGTACATATATATATATATTA [XGTACX_site5005] | 9.29 |
